{"source": "paper PMC4336329", "about": "(PLoS ONE, 2015)", "note": "The whole screen tested about 310,000 compounds, of which about 2,200 (0.71%) showed an effect of 50% or more. Effects have a minus sign here. Some of the results follow."}
{"target": "human ether-à-go-go-related gene (hERG) potassium channel (human, UniProt Q12809)", "sequence (Q12809 whole entry, looked up)": "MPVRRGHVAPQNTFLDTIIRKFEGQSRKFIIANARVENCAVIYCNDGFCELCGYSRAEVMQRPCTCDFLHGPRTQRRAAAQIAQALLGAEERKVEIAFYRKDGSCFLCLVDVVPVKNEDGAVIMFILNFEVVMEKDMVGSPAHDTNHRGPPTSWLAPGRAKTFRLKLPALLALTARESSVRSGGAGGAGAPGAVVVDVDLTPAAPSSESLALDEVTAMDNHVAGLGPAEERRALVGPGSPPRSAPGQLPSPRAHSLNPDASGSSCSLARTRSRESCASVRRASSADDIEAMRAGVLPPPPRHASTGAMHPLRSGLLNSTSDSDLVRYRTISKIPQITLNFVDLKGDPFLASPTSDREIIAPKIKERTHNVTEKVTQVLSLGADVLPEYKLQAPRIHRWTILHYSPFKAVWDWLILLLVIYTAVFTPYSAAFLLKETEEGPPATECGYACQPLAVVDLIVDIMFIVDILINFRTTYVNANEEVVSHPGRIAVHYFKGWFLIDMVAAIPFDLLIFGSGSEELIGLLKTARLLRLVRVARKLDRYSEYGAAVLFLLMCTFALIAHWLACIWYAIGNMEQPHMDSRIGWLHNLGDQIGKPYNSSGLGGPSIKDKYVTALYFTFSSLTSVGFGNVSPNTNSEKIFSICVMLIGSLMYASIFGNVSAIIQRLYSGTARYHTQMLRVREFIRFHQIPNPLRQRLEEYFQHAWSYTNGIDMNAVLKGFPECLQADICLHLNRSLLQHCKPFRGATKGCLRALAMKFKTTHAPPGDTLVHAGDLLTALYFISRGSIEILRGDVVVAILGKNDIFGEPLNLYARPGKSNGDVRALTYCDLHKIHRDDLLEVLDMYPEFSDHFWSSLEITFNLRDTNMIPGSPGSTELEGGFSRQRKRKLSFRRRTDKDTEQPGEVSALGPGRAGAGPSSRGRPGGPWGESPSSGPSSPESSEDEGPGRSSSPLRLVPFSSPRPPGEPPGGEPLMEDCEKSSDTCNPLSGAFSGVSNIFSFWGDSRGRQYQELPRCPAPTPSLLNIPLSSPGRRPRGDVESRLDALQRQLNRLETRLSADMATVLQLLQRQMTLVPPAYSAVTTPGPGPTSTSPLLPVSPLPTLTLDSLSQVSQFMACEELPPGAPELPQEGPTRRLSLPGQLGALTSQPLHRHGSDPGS", "test": "primary screen, population patch clamp on CHO cells stably expressing hERG", "units": {"hERG current change (%, negative = inhibition) at 1uM": "%"}}
{"smiles": "COc1ccc(CNC(=O)CN(C(=O)CCC(=O)Nc2nccs2)c2ccccc2C)cc1", "hERG current change (%, negative = inhibition) at 1uM": 2.27}
{"smiles": "CCOC(=O)c1cccnc1SCC(=O)N(C)c1ccccc1", "hERG current change (%, negative = inhibition) at 1uM": 4.5}
{"smiles": "Cc1cc(C(=O)N/N=C2\\CCCC(=O)C2)c(C)n1-c1ccccc1", "hERG current change (%, negative = inhibition) at 1uM": 8.28}
{"smiles": "CCOc1ccccc1N(CC(=O)NC1CCCCC1)C(=O)c1nsc(Cl)c1Cl", "hERG current change (%, negative = inhibition) at 1uM": 8.91}
{"smiles": "Cc1ccc(C(=O)OCc2nnc(-c3ccccc3)o2)s1", "hERG current change (%, negative = inhibition) at 1uM": 13.6}
{"smiles": "O=C(Cn1cccc1C(=O)c1ccccc1)NCc1cccc(Cl)c1", "hERG current change (%, negative = inhibition) at 1uM": 10.4}
{"smiles": "CCOc1ccc(/C=N/Nc2nc(C)cs2)c(O)c1", "hERG current change (%, negative = inhibition) at 1uM": 24.1}
{"smiles": "CCc1nnc(NC(=O)Cc2c[nH]c3ccccc23)s1", "hERG current change (%, negative = inhibition) at 1uM": 9.81}
{"smiles": "CC1=NN(c2ccc(Cl)cc2)C(=O)C1", "hERG current change (%, negative = inhibition) at 1uM": 4.8}
{"smiles": "CCOc1ccc(N2CC(=O)Nc3ccccc3NCC2=O)cc1", "hERG current change (%, negative = inhibition) at 1uM": 2.33}
{"smiles": "O=C(NCc1ccncc1)C1CCCCC1", "hERG current change (%, negative = inhibition) at 1uM": 2.06}
{"smiles": "O=C(CSc1nnc(-c2ccncc2)n1CC1CCCO1)NCc1ccccc1", "note": "(centres unmarked)", "hERG current change (%, negative = inhibition) at 1uM": 6.3}
{"smiles": "COC(=O)c1ccc(NC(=S)N2CCN(Cc3cccc(C)c3)CC2)cc1", "hERG current change (%, negative = inhibition) at 1uM": -0.74}
{"smiles": "Nc1c(Cl)ncnc1N/N=C/c1ccccn1", "hERG current change (%, negative = inhibition) at 1uM": -3.65}
{"smiles": "CNC(=S)N/N=C1\\C(=O)c2cccc3cccc1c23", "hERG current change (%, negative = inhibition) at 1uM": 6.49}
{"smiles": "O=C(CCCn1c(=S)[nH]c2ccccc2c1=O)N1CCOCC1", "hERG current change (%, negative = inhibition) at 1uM": 4.2}
{"smiles": "O=C(O)CCNC(=O)c1ccc(Br)o1", "hERG current change (%, negative = inhibition) at 1uM": 3.01}
{"smiles": "CSCCC(NC(=O)c1ccco1)C(=O)NCC1CCCO1", "note": "(centres unmarked)", "hERG current change (%, negative = inhibition) at 1uM": 8.32}
{"smiles": "CC(C)n1nc(C(=O)NCc2ccc3c(c2)OCO3)c2ccccc2c1=O", "hERG current change (%, negative = inhibition) at 1uM": 9.91}
{"smiles": "CSc1nc(-c2ccccc2)nn1C(=O)c1ccc(Cl)cc1", "hERG current change (%, negative = inhibition) at 1uM": 11.1}
{"smiles": "CC(=O)Nc1ccc(S(=O)(=O)N2C3CCCC2CC(NC(=O)C2CCCCC2)C3)cc1", "note": "(centres unmarked)", "hERG current change (%, negative = inhibition) at 1uM": 11.2}
{"smiles": "Cc1ccc(CNC(=O)CNC(=O)c2ccco2)cc1", "hERG current change (%, negative = inhibition) at 1uM": 25.1}
{"smiles": "COc1ccc(C(=O)Nc2cccnc2)cc1S(=O)(=O)N1CCOCC1", "hERG current change (%, negative = inhibition) at 1uM": 10.5}
{"smiles": "Nn1c(Cc2ccccc2F)nnc1SCC(=O)N1CC(=O)Nc2ccccc21", "hERG current change (%, negative = inhibition) at 1uM": 4.79}
{"smiles": "O=C(c1cc([N+](=O)[O-])ccc1Cl)N1c2ccccc2Sc2ccccc21", "hERG current change (%, negative = inhibition) at 1uM": 3.47}
{"smiles": "CCN1CCN(c2ccc(S(=O)(=O)N3CCCCC3)cc2NC(=O)CC(NC(C)=O)c2ccccc2)CC1", "note": "(centres unmarked)", "hERG current change (%, negative = inhibition) at 1uM": 14}
